The supplement of paper PMC6828730
The other results are listed elsewhere or left out. Single values are uncertain, as repeats are few or missing.

system: hiPSC-derived cardiomyocytes; experiment: time to death of most cells in well after compound addition (days); higher = less cardiotoxic; extreme values may be limits of the assay; conditions: screen: 3; 10 µM

SMILES | time to death of most cells in well
COc1cc(Nc2c(C#N)cnc3cc(OCCCN4CCN(C)CC4)c(OC)cc23)c(Cl)cc1Cl [Bosutinib (SKI-606)] | > 7
CN1CCN(c2ccc3nc(-c4c(N)c5c(F)cccc5[nH]c4=O)[nH]c3c2)CC1 [Dovitinib (TKI-258, CHIR-258)] | > 7
Cc1cn(-c2cc(NC(=O)c3ccc(C)c(Nc4nccc(-c5cccnc5)n4)c3)cc(C(F)(F)F)c2)cn1 [Nilotinib (AMN-107)] | > 7
CCOc1cc2ncc(C#N)c(Nc3ccc(F)c(Cl)c3)c2cc1NC(=O)/C=C/CN(C)C [Pelitinib (EKB-569)] | > 7
CNC(=O)CN1CCC(Oc2cc3c(Nc4cccc(Cl)c4F)ncnc3cc2OC)CC1 [Sapitinib (AZD8931)] | > 7
CS(=O)(=O)c1ccc(-c2cnc(N)c(C(=O)Nc3ccccc3)n2)cc1 | > 7
C[C@@H](Oc1cc(-n2cnc3ccc(CN4CCN(C)CC4)cc32)sc1C(N)=O)c1ccccc1C(F)(F)F | > 7
CC(C)(O)CNc1ncc(-c2ccnc(Nc3ccnc(Cl)c3)n2)c(CC2CC2)n1 | 2.5
CN(C[C@@H]1COCCO1)S(=O)(=O)Nc1ccc2ccc3ncc(-c4cnn(C)c4)cc3c(=O)c2c1 | > 7
COC(=O)Nc1ccc(-c2nc(N3CCOCC3)c3cnn(C4CCN(C(=O)OC)CC4)c3n2)cc1 | > 7
C=CC(=O)Nc1cccc(Nc2nc(Nc3ccc(OCCOC)cc3)ncc2F)c1 | > 7
CCN1C(=CC(C)=O)Sc2ccc(OC)cc21 | > 7
O=C(O)c1ccc(Nc2ncc3c(n2)-c2ccc(Cl)cc2C(c2c(F)cccc2F)=NC3)cc1 | > 7
NC(=O)c1ccc(-c2nc(-c3ccc4c(c3)OCCO4)c(-c3ccccn3)[nH]2)cc1 | > 7
O=C(/C=C/c1ccc2ccccc2n1)c1ccncc1 | 0.5
CCn1c2ccccc2c2cc(Nc3ccnc(NCCCN4CCOCC4)n3)ccc21 | 2.5
COc1cc2nccc(Oc3ccc(NC(=O)C4(C(=O)Nc5ccc(F)cc5)CC4)cc3)c2cc1OC [Cabozantinib malate (XL184)] | > 7
Nc1cccc(S(=O)(=O)N2CCCN(S(=O)(=O)c3ccc4c(c3)OCCO4)CC2)c1 | > 7
CN1CCN(S(=O)(=O)c2ccc(-c3cnc(N)c(C(=O)Nc4cccnc4)n3)cc2)CC1 | 3

SMILES | time to death of most cells in well
CC(C)(C)n1nc(-c2ccc(Cl)cc2)c2c(N)ncnc21 | 3
C[C@@H](NC(=O)c1ncnc(N)c1Cl)c1ncc(C(=O)Nc2cc(C(F)(F)F)c(Cl)cn2)s1 | > 7
CNC(=O)c1ccc(C)c(-n2c(C)cc(OCc3ccc(F)cc3F)c(Br)c2=O)c1 | 6.5
OCCn1cc(-c2ccc3c(c2)CC/C3=N\O)c(-c2ccncc2)n1 | > 7
CNC(=O)c1cc(COc2nnc(Nc3ccc(Cl)cc3)c3ccoc23)ccn1 [Telatinib] | > 7
CC(C)(CCCCCC(O)CCCCCC(C)(C)C(=O)O)C(=O)O | > 7
N#CC1(c2ccc(NC(=O)c3cccnc3NCc3ccncc3)cc2)CCCC1 [Apatinib] | > 7
CCN1CCN(Cc2ccc(Nc3ncc(F)c(-c4cc(F)c5nc(C)n(C(C)C)c5c4)n3)nc2)CC1 | 2.5
CC(C)CC(=O)Nc1n[nH]c2c1CN(C(=O)C1CCN(C)CC1)C2(C)C | 3.5
O=C(Nc1ccc(OC(F)(F)F)cc1)c1sccc1NCc1ccnc2ccccc12 | > 7
CN(C)Cc1cccc(N=C(c2ccccc2)c2c(O)[nH]c3cc(C(=O)N(C)C)ccc23)c1 | > 7
O=C(Nc1cccc(Nc2ncc(Br)c(NCCc3cnc[nH]3)n2)c1)N1CCCC1 | > 7
Cc1ccc(C(=O)Nc2cccc(C(F)(F)F)c2)cc1Nc1nc(-c2cccnc2)nc2c1cnn2C | > 7
COc1nccc(-c2c(-c3ccc(F)cc3)ncn2C2CCC(O)CC2)n1 (stereo not drawn) | > 7
CCN(CCO)CCCOc1ccc2c(Nc3cc(CC(=O)Nc4cccc(F)c4)[nH]n3)ncnc2c1 [Barasertib (AZD1152-HQPA)] | > 7
O=S(=O)(NCCNCC=Cc1ccc(Br)cc1)c1cccc2cnccc12 | > 7
CNc1nc(Nc2cn(C(C)(C)C#N)nc2C)ncc1C(F)(F)F | > 7
C=CC(=O)N1CCC[C@@H](n2nc(-c3ccc(Oc4ccccc4)cc3)c3c(N)ncnc32)C1 | > 7
N#CC(=Cc1ccc(O)c(O)c1)C(=O)NCc1ccccc1 [AG-490 (Tyrphostin B42)] | > 7
